Source: publication PMC10929172
No constants are given. Whether binding was seen depends on the method and setting. In cells and extracts the contact can be indirect. Some binding calls cover weakened binding; strength is not graded here. One block for each substance: values may come before it.

Amino acid sequences for entries named in this document (tags omitted). A change or cut given only in a name is not applied to a line headed by its entry. Chains listed by the source or under a name are the forms on record and can include a tag or linker. Residues count along the entry.
UniProt P09936: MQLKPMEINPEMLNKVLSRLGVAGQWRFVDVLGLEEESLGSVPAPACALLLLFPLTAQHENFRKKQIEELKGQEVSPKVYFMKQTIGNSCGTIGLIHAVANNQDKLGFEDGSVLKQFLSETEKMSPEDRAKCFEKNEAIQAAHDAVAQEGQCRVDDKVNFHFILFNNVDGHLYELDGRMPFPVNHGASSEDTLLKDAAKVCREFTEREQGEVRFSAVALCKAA
UniProt Q13887: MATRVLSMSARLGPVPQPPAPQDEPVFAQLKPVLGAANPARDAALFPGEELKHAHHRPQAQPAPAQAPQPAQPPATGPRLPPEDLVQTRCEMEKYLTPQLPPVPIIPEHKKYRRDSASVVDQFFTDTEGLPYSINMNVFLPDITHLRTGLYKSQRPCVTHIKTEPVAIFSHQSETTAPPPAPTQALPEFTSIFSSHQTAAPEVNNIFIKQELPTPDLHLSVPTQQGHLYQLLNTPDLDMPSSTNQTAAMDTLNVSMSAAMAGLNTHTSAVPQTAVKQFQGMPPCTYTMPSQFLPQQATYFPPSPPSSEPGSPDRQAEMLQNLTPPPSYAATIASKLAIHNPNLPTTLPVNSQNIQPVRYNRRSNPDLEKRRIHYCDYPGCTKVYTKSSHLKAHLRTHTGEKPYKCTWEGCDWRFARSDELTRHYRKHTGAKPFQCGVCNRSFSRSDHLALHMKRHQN
KLF5-FL1 (1-312), C-terminal 3xFlag tagged (human (from RefSeq NM_001730)): residues 1-312 of Q13887
KLF5-FL2 (313-457), C-terminal 3xFlag tagged (human (from RefSeq NM_001730)): residues 313-457 of Q13887

Legend:
[1] = biological target: Ubiquitin carboxyl-terminal hydrolase L1 (UCHL1), endogenous (human (endogenous in MDA-MB-468 and SUM149)) (UniProt P09936); assay: co-IP; endogenous proteins of MDA-MB-468 and SUM149 lysates precipitated with rabbit anti-KLF5 or anti-UCHL1, Protein A Sepharose; detected with mouse anti-UCHL1 or anti-KLF5; rabbit IgG as negative control
[2] = biological target: KLF5-FL1 (1-312), C-terminal 3xFlag tagged (human (from RefSeq NM_001730)) (UniProt Q13887); assay: co-IP; FLAG-tagged full-length KLF5 or fragments and Myc-UCHL1 co-transfected into MDA-MB-468 cells; immunoprecipitation with FLAG-M2 beads
[3] = biological target: KLF5-FL2 (313-457), C-terminal 3xFlag tagged (human (from RefSeq NM_001730)) (UniProt Q13887); assay: as above
[4] = biological target: C-terminal 3xFlag tagged full-length KLF5 (human (from RefSeq NM_001730)) (UniProt Q13887); assay: as above
[5] = biological target: KLF5, endogenous (human (endogenous in MDA-MB-468 and SUM149)) (UniProt Q13887); assay: co-IP; cells overexpressing UCHL1 (C90S); Supplementary Fig. 3A; which protein was precipitated is not told
[6] = biological target: KLF5, endogenous (human (endogenous in MDA-MB-468 and SUM149)) (UniProt Q13887); assay: co-IP; endogenous proteins of MDA-MB-468 and SUM149 lysates precipitated with rabbit anti-KLF5 or anti-UCHL1, Protein A Sepharose; detected with mouse anti-UCHL1 or anti-KLF5; rabbit IgG as negative control

binding [1]: binds
Substance: KLF5, endogenous (from UniProt Q13887-1 1-457)

binding [2]: no binding
binding [3]: binds
binding [4]: binds
Substance: Myc-tagged UCHL1 (from UniProt P09936-1 1-223) (enzyme)

binding [5]: binds
Substance: UCHL1 (C90S) (from UniProt P09936-1 1-223) (enzyme)

binding [6]: binds
Substance: Ubiquitin carboxyl-terminal hydrolase L1 (UCHL1), endogenous (from UniProt P09936-1 1-223) (enzyme)
